Data from the antibiotic and cytotoxicity screens of Wong et al. (2023).
This is one part of the list.

Legend:
[1] = test system: HSkMC (human skeletal muscle cells); test: cytotoxicity call (relative viability < 0.9); details: 10 µM
[2] = test system: HepG2; test: cytotoxicity call (relative viability < 0.9); details: 10 µM
[3] = test system: S. aureus RN4220; test: growth inhibition call (relative growth <= 0.2); details: 50 µM

Structure (SMILES)	cytotoxicity call [1]	cytotoxicity call [2]	growth inhibition call [3]
COC(=O)C[C@](O)(CCC(C)(C)O)C(=O)O[C@@H]1C(OC)=C[C@]23CCCN2CCc2cc4c(cc2[C@H]13)OCO4	active	active	inactive
COc1cc(CCN)ccc1O	inactive	inactive	inactive
C1CCc2nnnn2CC1	inactive	inactive	inactive
O=c1cccc2n1C[C@@H]1C[C@H]2CN(C[C@H](O)/C=N/n2cnnc2)C1	inactive	inactive	inactive
CCOC(=O)c1cncn1C(C)c1ccccc1 (stereo unspecified)	inactive	inactive	inactive
O[C@@]12CCCC[C@@H]1CNCC2	inactive	inactive	inactive
CN(C)NC(=O)CCC(=O)O	inactive	inactive	inactive
C[C@H](N)[C@H](O)c1ccc(O)c(O)c1	inactive	inactive	inactive
C[N+]1(C)C2CC(OC(=O)C(CO)c3ccccc3)CC1C1OC12.[Br-] (stereo unspecified)	inactive	inactive	inactive
COc1cccc(C2(N)CCCC2)c1	inactive	inactive	inactive
c1ccc2sc(C3(N4CCCC4)CCCCC3)cc2c1	inactive	inactive	inactive
CN1[C@H](CO)[C@H]2c3ccccc3NC[C@H]21	inactive	inactive	inactive
COC(=O)C[C@H]1CC[C@@H]2NC[C@H](O)COC[C@H]2O1	inactive	inactive	inactive
COC(=O)[C@H]1CNC(=O)C1	inactive	inactive	inactive
OCc1ccc2c(c1)OCO2	inactive	inactive	inactive
NCCc1ccccn1	inactive	inactive	inactive
CCOC(OCC)P(=O)(O)CCCN	inactive	inactive	inactive
N#Cc1cnccn1	inactive	inactive	inactive
Oc1ccccc1N1CCNCC1	inactive	inactive	inactive
CN1C[C@H]2CN[C@H]2C1	inactive	inactive	inactive
N[C@H]1C[C@H]1c1ccccc1	inactive	inactive	inactive
N#CC[N+]12CCN(CC1)CC2	inactive	inactive	inactive

Structure (SMILES)	cytotoxicity call [1]	cytotoxicity call [2]	growth inhibition call [3]
NNc1ccn([C@H]2O[C@@H](CO)[C@@H](O)[C@@H]2O)c(=O)n1	inactive	inactive	inactive
CC(NC(C)(C)C)C(=O)c1cccc(Cl)c1.Cl (stereo unspecified)	inactive	inactive	inactive
C#CC1(O)CCC2C3CCC4=CC(=O)CCC4(C)C3CCC21C (stereo unspecified)	inactive	active	inactive
CN[C@H]1C[C@@H](N)[C@H](O)[C@@H](O[C@@H]2O[C@H](CO)[C@H](O)[C@@H]3O[C@@]4(O[C@H]23)O[C@H]([C@@H](N)CO)[C@H](O)[C@H](O)[C@H]4O)[C@@H]1O	active	inactive	inactive
CCn1cc2nc(N3CCNCC3)[nH]cc-2c1=O	inactive	inactive	inactive
O=c1[nH]c2ccccc2n1CCCN1CCC(n2c(=O)[nH]c3cc(Cl)ccc32)CC1	inactive	inactive	inactive
Cc1ccc(C)c(C(=O)[C@H](N)CC(C)C)c1	inactive	inactive	inactive
O=c1n(Cl)c(=O)n(Cl)c(=O)n1Cl	inactive	inactive	inactive
CC(C)CC(CN)CC(=O)O (stereo unspecified)	inactive	inactive	inactive
Cn1cc(NC(=O)c2cc(NC(=O)CNC(=N)N)cn2C)cc1C(=O)NCCC(=N)N	inactive	inactive	inactive
CC(C)(O)C(Cl)(Cl)Cl	inactive	inactive	inactive
C[C@]12CC[C@]3(C)OC[C@](CO)(CO1)N23	inactive	inactive	inactive
NC[C@H]1CCCc2ccc(Cl)cc21	inactive	inactive	inactive
CC(CO)NC(=O)C1C=C2c3cccc4[nH]cc(c34)CC2N(C)C1.O=C(O)C=CC(=O)O (stereo unspecified)	inactive	inactive	inactive
O[C@H]1CNC[C@@H]1N1CCCCC1	inactive	inactive	inactive
CCC1(O)C(=O)OCc2c1cc1n(c2=O)Cc2cc3ccccc3nc2-1 (stereo unspecified)	inactive	active	inactive
CNCC(O)c1ccc(O)cc1 (stereo unspecified)	inactive	inactive	inactive
OCc1ccco1	inactive	inactive	inactive
C[C@H](CO)N1C[C@H](C)[C@H](CN(C)C(=O)Oc2cccc3ccccc23)OCc2cn(nn2)CCCC1=O	inactive	inactive	inactive
Cc1cc[n+](C)cc1	inactive	inactive	inactive
NCC1(CC(=O)O)CCCCC1	inactive	inactive	inactive
C=C1CC2C(CCC3(C)C(=O)CCC23)C2(C)C=CC(=O)C=C12 (stereo unspecified)	inactive	inactive	inactive

Structure (SMILES)	cytotoxicity call [1]	cytotoxicity call [2]	growth inhibition call [3]
CN1C(=O)CCS(=O)(=O)C1c1ccc(Cl)cc1 (stereo unspecified)	inactive	inactive	inactive
CC(=O)OC1CC2C(C)(C)C(=O)C=CC2(C)C2CCC3(C)C(=CC(=O)OC3c3ccoc3)C12C (stereo unspecified)	inactive	active	inactive
CC(C)c1ccc2[nH]c(=O)c(CCN)cc2c1	inactive	inactive	inactive
c1ccc(CN2CCNCC2)nc1	inactive	inactive	inactive
NCCc1cccc2ccccc12	inactive	inactive	inactive
CCCC[C@@H](C)[C@@H](OC(=O)C[C@@H](CC(=O)O)C(=O)O)[C@H](C[C@@H](C)C[C@H](O)CCCC[C@@H](O)C[C@H](O)[C@H](C)N)OC(=O)C[C@@H](CC(=O)O)C(=O)O	inactive	inactive	inactive
O=C1C=CC(=O)c2c(O)cccc21	inactive	active	inactive
NC(=O)CN1C[C@@H](O)CC1=O	inactive	inactive	inactive
CI.O=C(COc1ccc(Cl)cc1Cl)OC[C@H]1CCCN2CCCC[C@@H]12	inactive	inactive	inactive
O=C(c1ccccc1)C12CN3CN(CN(C3)C1)C2	inactive	inactive	inactive
CC(=O)OC(C)(C)/C=C/C(=O)C(C)(O)[C@H]1[C@H](O)C[C@@]2(C)[C@H]3CC=C4[C@@H](C[C@H](O)C(=O)C4(C)C)[C@]3(C)C(=O)C[C@]12C (stereo partly specified)	inactive	active	inactive
C[N+]1(C)C2CCC1CC(OC(=O)C(CO)c1ccccc1)C2.O=[N+]([O-])[O-] (stereo unspecified)	inactive	inactive	inactive
CCCCC(=O)N1C[C@@H]2CCNC[C@@H]21	inactive	inactive	inactive
NC(=O)CS(=O)C(c1ccccc1)c1ccccc1 (stereo unspecified)	inactive	inactive	inactive
CCC1(C2OC(C3OC(O)(CO)C(C)CC3C)CC2C)CCC(C2(C)CCC3(CC(O)C(C)C(C(C)C(OC)C(C)C(=O)[O-])O3)O2)O1.[Na+] (stereo unspecified)	inactive	active	active
CC1CCC2(NC1)OC1CC3C4CC=C5CC(O)CCC5(C)C4CCC3(C)C1C2C (stereo unspecified)	inactive	inactive	inactive
O=C(Cc1ccccc1)c1ccccc1	inactive	inactive	inactive
CCOc1ccc(N2CCNCC2)nn1	inactive	inactive	inactive
CCCNC(=O)C1=NO[C@]2(CCNC2)C1	inactive	inactive	inactive
Nc1ccc([As](=O)(O)O)cc1	inactive	inactive	inactive
COc1ccc(CCN)cc1O	inactive	inactive	inactive
COc1cc2c(cc1OC)C1C(=O)c3ccc4oc(C(C)C)cc4c3OC1CO2 (stereo unspecified)	inactive	active	inactive

Structure (SMILES)	cytotoxicity call [1]	cytotoxicity call [2]	growth inhibition call [3]
COc1ccc(C(CN(C)C)C2(O)CCCCC2)cc1.Cl (stereo unspecified)	inactive	inactive	inactive
C[C@@H]1CN([C@@H](C)CO)C(=O)CCCn2cc(nn2)CO[C@@H]1CN(C)C(=O)Oc1ccc2ccccc2c1	inactive	inactive	inactive
CNC(=O)Oc1ccc2c(c1)C1(C)CCN(C)C1N2C (stereo unspecified)	inactive	active	inactive
ClC=C(Cl)Cl	inactive	inactive	inactive
COP(=S)(OC)Oc1ccc([N+](=O)[O-])cc1	inactive	inactive	inactive
COC(=O)C[C@@H]1CC[C@H]2NC[C@@H](O)COC[C@@H]2O1	inactive	inactive	inactive
NCCc1ccc(S(=O)(=O)F)cc1	inactive	inactive	inactive
CC(C)c1ccc2c(c1)[C@H](O)[C@H](N)CCO2	inactive	inactive	inactive
C=C(C)C1C2OC(=O)C1C1(O)CC3OC34C(=O)OC2C14C (stereo unspecified)	inactive	inactive	inactive
COC(=O)[C@@H]1[C@@H](CO)[C@@H]2Cn3c(cccc3=O)[C@H]1N2C(=O)C1CC1	inactive	inactive	inactive
O=C(NC(O)C(Cl)(Cl)Cl)NC(O)C(Cl)(Cl)Cl (stereo unspecified)	inactive	inactive	inactive
O=C1NCc2cnnn2-c2ccccc21	inactive	inactive	inactive
OCCN[C@@H]1c2ccccc2[C@H]2CNC[C@H]21	inactive	inactive	inactive
C=C1[C@@H](C)[C@H]2[C@H](Cc3ccccc3)NC(=O)[C@]23[C@H](OC(C)=O)/C=C/[C@](C)(O)C(=O)[C@@H](C)C/C=C/[C@H]3[C@@H]1O	active	active	inactive
CCCC(=O)c1c(O)[nH]c(=O)[nH]c1=O	inactive	inactive	inactive
CCC1(c2ccccc2)C(=O)NC(=O)NC1=O	inactive	inactive	inactive
CCCCCCCCCC(=O)O[C@@H]1[C@@H](C)[C@@]2(O)[C@@H](C=C(CO)C[C@]3(O)C(=O)C(C)=C[C@@H]23)[C@@H]2C(C)(C)[C@]12OC(=O)CCCCCCCCC	inactive	inactive	inactive
[N-]=[N+]=NCc1ccccc1C[C@]1(C(=O)N2CCCCC2)N=C(c2ccc(OCCCO)cc2)O[C@H]1c1ccccc1N=[N+]=[N-]	inactive	active	inactive
CCCC12CNCC(C)(CNC1)C2=O	inactive	inactive	inactive
Cc1ccc(OC(=O)N(C)C[C@@H]2OCc3ccccc3-c3c(n(C)c4ccccc34)C(=O)N([C@@H](C)CO)C[C@H]2C)cc1	inactive	inactive	inactive
COc1cc(C(=O)O)cc(OC)c1OC	inactive	inactive	inactive
